Laboratory results: the supplement of paper PMC6206098
± gives the uncertainty stated by the source. Shown are siRNA guide strands that differ only in the seed, positions 2 to 7.

Experiments:
3LL = test: cell viability relative to siNT1 control; higher = less toxic; details: concentration: 10 nM; 96 h; Mus musculus;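 further: Luminescence-based viability of cells reverse transfected in 384-well plates with lipid-complexed siRNAs built on a non-toxic 19mer backbone whose passenger strand carries 2′-O-methyl groups at positions 1 and 2, triplicates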
H460 = test: cell viability relative to lipid-only control; HeyA8 human ovarian and H460 human lung cancer; M565 mouse liver and 3LL mouse lung cancer; siNT1 is a non-toxic control siRNA; higher = less toxic; details: concentration: 10 nM; 96 h; Homo sapiens
HeyA8 = test: as above; details: concentration: 10 nM; 96 h; Homo sapiens
M565 = test: as above; details: concentration: 10 nM; 96 h; Mus musculus
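Wherever cell viability relative to lipid-only control is given: reverse lipid transfection in 384-well plates, in triplicate, of duplexes on a non-toxic 19mer backbone with passenger strand 2′-O-methylated at positions 1 and 2, luminescence viability read-out.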

| Sequence | cell viability (3LL) [%] | cell viability (H460) [%] | cell viability (HeyA8) [%] | cell viability (M565) [%] |
| --- | --- | --- | --- | --- |
| UUUUGCAACAUGUAAACCAAA | 100 ± 5.4 | 65.7 ± 10 | 92.8 ± 9.3 | 92.8 ± 8.2 |
| UUUUGCCACAUGUAAACCAAA | 15.8 ± 1.1 | 17.7 ± 1.2 | 26.8 ± 1.2 | 24.3 ± 4.8 |
| UUUUGCGACAUGUAAACCAAA | 96 ± 12 | 77.6 ± 8.9 | 95 ± 2 | 102 ± 9.1 |
| UUUUGCUACAUGUAAACCAAA | 71.9 ± 5.3 | 65.6 ± 11 | 65.7 ± 3.5 | 96 ± 9.7 |
| UUUUGGAACAUGUAAACCAAA | 105 ± 15 | 74 ± 19 | 80.7 ± 8.2 | 92.3 ± 5.7 |
| UUUUGGCACAUGUAAACCAAA | 16.1 ± 0.33 | 40 ± 2.4 | 69.1 ± 2.8 | 22.1 ± 4.4 |
| UUUUGGGACAUGUAAACCAAA | 58.2 ± 7.8 | 56.6 ± 3.1 | 86.5 ± 6.6 | 48.7 ± 3.8 |
| UUUUGGUACAUGUAAACCAAA | 84.1 ± 13 | 57.8 ± 3.7 | 93.2 ± 7.4 | 55.7 ± 2 |
| UUUUGUAACAUGUAAACCAAA | 99.7 ± 3.6 | 75 ± 13 | 101 ± 3.4 | 108 ± 12 |
| UUUUGUCACAUGUAAACCAAA | 85.3 ± 4.2 | 57.4 ± 5.6 | 76.3 ± 9.9 | 69.2 ± 7.9 |
| UUUUGUGACAUGUAAACCAAA | 102 ± 5.2 | 93.9 ± 24 | 96.6 ± 8.7 | 79.4 ± 10 |
| UUUUGUUACAUGUAAACCAAA | 78.6 ± 6.4 | 66.6 ± 1.6 | 87.6 ± 5.8 | 109 ± 14 |
| UUUUUAAACAUGUAAACCAAA | 92.9 ± 4.9 | 65.8 ± 12 | 96.9 ± 7.9 | 109 ± 7 |
| UUUUUACACAUGUAAACCAAA | 93 ± 7.5 | 73.5 ± 5.6 | 95.1 ± 4 | 94.2 ± 6.7 |
